# Test results as given in the supplement of paper PMC8728848.
# Some of the results follow.
# B1: BDCA-2 (Homo sapiens), Q8WTT0 (protein)
# chain: MVPEEEPQDREKGLWWFQLKVWSMAVVSILLLSVCFTVSSVVPHNFMYSKTVKRLSKLREYQQYHPSLTCVMEGKDIEDWSCCPTPWTSFQSSCYFISTGMQSWTKSQKNCSVMGADLVVINTREEQDFIIQNLKRNSSYFLGLSDPGGRRHWQWVDQTPYNENVTFWHSGEPNNLDERCAIINFRSSEEWGWNDIHCHVPQKSICKMKKIYI
# Columns and labels:
# Test in all cases: glycan array binding signal (z-score within array); higher = stronger binding
# Conditions in all cases: glycan notation: IUPAC condensed, linker removed
# [1] = target: GlcNAc(b1-3)Gal(b1-4)GlcNAc(b1-3)Gal(b1-4)GlcNAc(b1-2)Man(a1-3)[GlcNAc(b1-3)Gal(b1-4)GlcNAc(b1-3)Gal(b1-4)GlcNAc(b1-2)Man(a1-6)]Man(b1-4)GlcNAc(b1-4)GlcNAc
# Method in brief: (§1)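 Arrays were curated from the Consortium for Functional Glycomics database, 3228 in total, and kept only where the protein sequence was available. Binding is expressed as a within-array Z-score. This score was averaged across arrays of the same protein sequence at different concentrations or buffers and across linkers, and negative values can be read as non-binding.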
# [2] = target: GlcNAc(b1-3)Gal(b1-4)GlcNAc(b1-3)Gal(b1-4)GlcNAc(b1-2)Man(a1-3)[GlcNAc(b1-3)Gal(b1-4)GlcNAc(b1-3)Gal(b1-4)GlcNAc(b1-2)Man(a1-6)]Man(b1-4)GlcNAc(b1-4)[Fuc(a1-6)]GlcNAc
# Method in brief: as §1
# [3] = target: GlcNAc(b1-3)Gal(b1-4)GlcNAc(b1-3)Gal(b1-4)GlcNAc(b1-2)[GlcNAc(b1-3)Gal(b1-4)GlcNAc(b1-3)Gal(b1-4)GlcNAc(b1-6)]Man(a1-6)[GlcNAc(b1-3)Gal(b1-4)GlcNAc(b1-3)Gal(b1-4)GlcNAc(b1-2)Man(a1-3)]Man(b1-4)GlcNAc(b1-4)[Fuc(a1-6)]GlcNAc
# Method in brief: as §1
# [4] = target: GlcNAc(b1-3)Gal(b1-4)GlcNAc(b1-3)Gal(b1-4)GlcNAc(b1-3)Gal(b1-4)GlcNAc(b1-2)Man(a1-3)[GlcNAc(b1-3)Gal(b1-4)GlcNAc(b1-3)Gal(b1-4)GlcNAc(b1-3)Gal(b1-4)GlcNAc(b1-2)Man(a1-6)]Man(b1-4)GlcNAc(b1-4)GlcNAc
# Method in brief: as §1
# [5] = target: GlcNAc(b1-3)Gal(b1-4)GlcNAc(b1-3)Gal(b1-4)GlcNAc(b1-3)Gal(b1-4)GlcNAc(b1-2)Man(a1-3)[GlcNAc(b1-3)Gal(b1-4)GlcNAc(b1-3)Gal(b1-4)GlcNAc(b1-3)Gal(b1-4)GlcNAc(b1-2)Man(a1-6)]Man(b1-4)GlcNAc(b1-4)[Fuc(a1-6)]GlcNAc
# Method in brief: as §1
# [6] = target: GlcNAc(b1-3)Gal(b1-4)GlcNAc(b1-3)Gal(b1-4)GlcNAc(b1-3)Gal(b1-4)GlcNAc(b1-2)[GlcNAc(b1-3)Gal(b1-4)GlcNAc(b1-3)Gal(b1-4)GlcNAc(b1-3)Gal(b1-4)GlcNAc(b1-6)]Man(a1-6)[GlcNAc(b1-3)Gal(b1-4)GlcNAc(b1-3)Gal(b1-4)GlcNAc(b1-3)Gal(b1-4)GlcNAc(b1-2)Man(a1-3)]Man(b1-4)GlcNAc(b1-4)[Fuc(a1-6)]GlcNAc
# Method in brief: as §1
# [7] = target: GlcNAc(b1-3)Gal(b1-4)GlcNAc(b1-3)Gal(b1-4)GlcNAc(b1-3)Gal(b1-4)GlcNAc(b1-3)Gal(b1-4)GlcNAc(b1-2)Man(a1-3)[GlcNAc(b1-3)Gal(b1-4)GlcNAc(b1-3)Gal(b1-4)GlcNAc(b1-3)Gal(b1-4)GlcNAc(b1-3)Gal(b1-4)GlcNAc(b1-2)Man(a1-6)]Man(b1-4)GlcNAc(b1-4)GlcNAc
# Method in brief: as §1
# [8] = target: GlcNAc(b1-3)Gal(b1-4)GlcNAc(b1-3)Gal(b1-4)GlcNAc(b1-3)Gal(b1-4)GlcNAc(b1-3)Gal(b1-4)GlcNAc(b1-2)Man(a1-3)[GlcNAc(b1-3)Gal(b1-4)GlcNAc(b1-3)Gal(b1-4)GlcNAc(b1-3)Gal(b1-4)GlcNAc(b1-3)Gal(b1-4)GlcNAc(b1-2)Man(a1-6)]Man(b1-4)GlcNAc(b1-4)[Fuc(a1-6)]GlcNAc
# Method in brief: as §1
# [9] = target: GlcNAc(b1-3)Gal(b1-4)GlcNAc(b1-3)Gal(b1-4)GlcNAc(b1-3)Gal(b1-4)GlcNAc(b1-3)Gal(b1-4)GlcNAc(b1-2)[GlcNAc(b1-3)Gal(b1-4)GlcNAc(b1-3)Gal(b1-4)GlcNAc(b1-3)Gal(b1-4)GlcNAc(b1-3)Gal(b1-4)GlcNAc(b1-6)]Man(a1-6)[GlcNAc(b1-3)Gal(b1-4)GlcNAc(b1-3)Gal(b1-4)GlcNAc(b1-3)Gal(b1-4)GlcNAc(b1-3)Gal(b1-4)GlcNAc(b1-2)Man(a1-3)]Man(b1-4)GlcNAc(b1-4)[Fuc(a1-6)]GlcNAc
# Method in brief: as §1
# [10] = target: GlcNAc(b1-3)Gal(b1-4)GlcNAc(b1-3)Gal(b1-4)GlcNAc(b1-3)GalNAc
# Method in brief: as §1
# [11] = target: GlcNAc(b1-3)Gal(b1-4)GlcNAc(b1-3)GalNAc
# Method in brief: as §1
# [12] = target: GlcNAc(b1-3)Gal(b1-4)GlcNAc(b1-3)[GlcNAc(b1-3)Gal(b1-4)GlcNAc(b1-3)]GalNAc
# Method in brief: as §1
# [13] = target: GlcNAc(b1-3)Gal(b1-4)GlcNAc(b1-6)[Gal(b1-3)]GalNAc
# Method in brief: as §1
# [14] = target: GlcNAc(b1-3)Gal(b1-4)GlcNAc(b1-6)[GlcNAc(b1-3)Gal(b1-3)]GalNAc
# Method in brief: as §1
# [15] = target: GlcNAc(b1-3)Gal(b1-4)GlcNAc(b1-6)[GlcNAc(b1-3)]Gal(b1-4)GlcNAc
# Method in brief: as §1
# GlcNAc(b1-3)GalNAc = target: GlcNAc(b1-3)GalNAc
# Method in brief: as §1
# GlcNAc(b1-3)Man = target: GlcNAc(b1-3)Man
# Method in brief: as §1
# [16] = target: GlcNAc(b1-3)[GlcNAc(b1-4)][GlcNAc(b1-6)]GlcNAc
# Method in brief: as §1
# [17] = target: GlcNAc(b1-3)[GlcNAc(b1-6)]Gal(b1-4)GlcNAc
# Method in brief: as §1
# [18] = target: GlcNAc(b1-3)[GlcNAc(b1-6)]GalNAc
# Method in brief: as §1
# [19] = target: GlcNAc(b1-3)[GlcNAc(b1-6)]GlcNAc(b1-4)GlcNAc
# Method in brief: as §1
# [20] = target: GlcNAc(b1-4)Gal(b1-4)GlcNAc
# Method in brief: as §1
# GlcNAc(b1-4)GlcNAc = target: GlcNAc(b1-4)GlcNAc
# Method in brief: as §1
# [21] = target: GlcNAc(b1-4)GlcNAc(b1-4)GlcNAc
# Method in brief: as §1
# [22] = target: GlcNAc(b1-4)GlcNAc(b1-4)GlcNAc(b1-4)GlcNAc(b1-4)GlcNAc
# Method in brief: as §1
# [23] = target: GlcNAc(b1-4)GlcNAc(b1-4)GlcNAc(b1-4)GlcNAc(b1-4)GlcNAc(b1-4)GlcNAc
# Method in brief: as §1
# [24] = target: GlcNAc(b1-4)[GlcNAc(b1-6)]GalNAc
# Method in brief: as §1
# [25] = target: GlcNAc(b1-6)Gal(b1-4)GlcNAc
# Method in brief: as §1
# GlcNAc(b1-6)GalNAc = target: GlcNAc(b1-6)GalNAc
# Method in brief: as §1
# [26] = target: GlcNAc6S(b1-3)Gal(b1-4)GlcNAc
# Method in brief: as §1
# Kdn(a2-3)Gal(b1-3)GalNAc = target: Kdn(a2-3)Gal(b1-3)GalNAc
# Method in brief: as §1
# Kdn(a2-3)Gal(b1-3)GlcNAc = target: Kdn(a2-3)Gal(b1-3)GlcNAc
# Method in brief: as §1
# Kdn(a2-3)Gal(b1-4)Glc = target: Kdn(a2-3)Gal(b1-4)Glc
# Method in brief: as §1
# Kdn(a2-3)Gal(b1-4)GlcNAc = target: Kdn(a2-3)Gal(b1-4)GlcNAc
# Method in brief: as §1
# [27] = target: Kdn(a2-3)Gal(b1-4)[Fuc(a1-3)]GlcNAc
# Method in brief: as §1
# Kdn(a2-6)Gal(b1-4)GlcNAc = target: Kdn(a2-6)Gal(b1-4)GlcNAc
# Method in brief: as §1
# [28] = target: Man(a1-2)Man(a1-2)Man(a1-3)Man
# Method in brief: as §1
# [29] = target: Man(a1-2)Man(a1-2)Man(a1-6)[Man(a1-3)]Man
# Method in brief: as §1
# Man(a1-2)Man(a1-3)Man = target: Man(a1-2)Man(a1-3)Man
# Method in brief: as §1
# [30] = target: Man(a1-2)Man(a1-3)[Man(a1-2)Man(a1-6)]Man
# Method in brief: as §1
# [31] = target: Man(a1-2)Man(a1-3)[Man(a1-2)Man(a1-6)]Man(a1-6)[Man(a1-2)Man(a1-2)Man(a1-3)]Man
# Method in brief: as §1
# [32] = target: Man(a1-2)Man(a1-3)[Man(a1-2)Man(a1-6)]Man(a1-6)[Man(a1-2)Man(a1-2)Man(a1-3)]Man(b1-4)GlcNAc(b1-4)GlcNAc
# Method in brief: as §1
# [33] = target: Man(a1-2)Man(a1-3)[Man(a1-6)]Man(a1-6)[Man(a1-2)Man(a1-3)]Man(b1-4)GlcNAc(b1-4)GlcNAc
# Method in brief: as §1
# [34] = target: Man(a1-2)Man(a1-6)[Man(a1-3)]Man(a1-6)[Man(a1-2)Man(a1-2)Man(a1-3)]Man
# Method in brief: as §1
# [35] = target: Man(a1-2)Man(a1-6)[Man(a1-3)]Man(a1-6)[Man(a1-2)Man(a1-2)Man(a1-3)]Man(b1-4)GlcNAc(b1-4)GlcNAc
# Method in brief: as §1
binder,measurement,setting,value
B1,glycan array binding signal (z-score),[1],-0.116
same,glycan array binding signal (z-score),[2],-0.156
same,glycan array binding signal (z-score),[3],-0.14
same,glycan array binding signal (z-score),[4],-0.134
same,glycan array binding signal (z-score),[5],-0.148
same,glycan array binding signal (z-score),[6],-0.166
same,glycan array binding signal (z-score),[7],-0.144
same,glycan array binding signal (z-score),[8],-0.146
same,glycan array binding signal (z-score),[9],-0.121
same,glycan array binding signal (z-score),[10],-0.189
same,glycan array binding signal (z-score),[11],-0.167
same,glycan array binding signal (z-score),[12],-0.168
same,glycan array binding signal (z-score),[13],-0.177
same,glycan array binding signal (z-score),[14],-0.178
same,glycan array binding signal (z-score),[15],-0.173
same,glycan array binding signal (z-score),GlcNAc(b1-3)GalNAc,-0.244
same,glycan array binding signal (z-score),GlcNAc(b1-3)Man,-0.171
same,glycan array binding signal (z-score),[16],-0.171
same,glycan array binding signal (z-score),[17],0.142
same,glycan array binding signal (z-score),[18],-0.234
same,glycan array binding signal (z-score),[19],-0.249
same,glycan array binding signal (z-score),[20],-0.089
same,glycan array binding signal (z-score),GlcNAc(b1-4)GlcNAc,-0.172
same,glycan array binding signal (z-score),[21],-0.228
same,glycan array binding signal (z-score),[22],-0.199
same,glycan array binding signal (z-score),[23],-0.251
same,glycan array binding signal (z-score),[24],-0.255
same,glycan array binding signal (z-score),[25],-0.127
same,glycan array binding signal (z-score),GlcNAc(b1-6)GalNAc,-0.196
same,glycan array binding signal (z-score),[26],-0.188
same,glycan array binding signal (z-score),Kdn(a2-3)Gal(b1-3)GalNAc,-0.175
same,glycan array binding signal (z-score),Kdn(a2-3)Gal(b1-3)GlcNAc,-0.15
same,glycan array binding signal (z-score),Kdn(a2-3)Gal(b1-4)Glc,-0.013
same,glycan array binding signal (z-score),Kdn(a2-3)Gal(b1-4)GlcNAc,-0.072
same,glycan array binding signal (z-score),[27],-0.147
same,glycan array binding signal (z-score),Kdn(a2-6)Gal(b1-4)GlcNAc,-0.183
same,glycan array binding signal (z-score),[28],-0.108
same,glycan array binding signal (z-score),[29],-0.183
same,glycan array binding signal (z-score),Man(a1-2)Man(a1-3)Man,-0.125
same,glycan array binding signal (z-score),[30],-0.237
same,glycan array binding signal (z-score),[31],-0.174
same,glycan array binding signal (z-score),[32],-0.222
same,glycan array binding signal (z-score),[33],-0.253
same,glycan array binding signal (z-score),[34],-0.168
same,glycan array binding signal (z-score),[35],-0.155
